Measurements as given in publication PMC4336329 (PLoS ONE, 2015).
In all, about 310,000 compounds went through this assay and about 14,000 (4.5%) showed an effect of 50% or more. Effects have a minus sign here. Some of the results follow.

Molecular target: human ether-à-go-go-related gene (hERG) potassium channel (human, UniProt Q12809)
Test: primary screen, population patch clamp on CHO cells stably expressing hERG
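Note: peak tail current of the secondary pulse compared with the same well before compound.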

Chain of human ether-à-go-go-related gene (hERG) potassium channel (Q12809 whole entry, looked up): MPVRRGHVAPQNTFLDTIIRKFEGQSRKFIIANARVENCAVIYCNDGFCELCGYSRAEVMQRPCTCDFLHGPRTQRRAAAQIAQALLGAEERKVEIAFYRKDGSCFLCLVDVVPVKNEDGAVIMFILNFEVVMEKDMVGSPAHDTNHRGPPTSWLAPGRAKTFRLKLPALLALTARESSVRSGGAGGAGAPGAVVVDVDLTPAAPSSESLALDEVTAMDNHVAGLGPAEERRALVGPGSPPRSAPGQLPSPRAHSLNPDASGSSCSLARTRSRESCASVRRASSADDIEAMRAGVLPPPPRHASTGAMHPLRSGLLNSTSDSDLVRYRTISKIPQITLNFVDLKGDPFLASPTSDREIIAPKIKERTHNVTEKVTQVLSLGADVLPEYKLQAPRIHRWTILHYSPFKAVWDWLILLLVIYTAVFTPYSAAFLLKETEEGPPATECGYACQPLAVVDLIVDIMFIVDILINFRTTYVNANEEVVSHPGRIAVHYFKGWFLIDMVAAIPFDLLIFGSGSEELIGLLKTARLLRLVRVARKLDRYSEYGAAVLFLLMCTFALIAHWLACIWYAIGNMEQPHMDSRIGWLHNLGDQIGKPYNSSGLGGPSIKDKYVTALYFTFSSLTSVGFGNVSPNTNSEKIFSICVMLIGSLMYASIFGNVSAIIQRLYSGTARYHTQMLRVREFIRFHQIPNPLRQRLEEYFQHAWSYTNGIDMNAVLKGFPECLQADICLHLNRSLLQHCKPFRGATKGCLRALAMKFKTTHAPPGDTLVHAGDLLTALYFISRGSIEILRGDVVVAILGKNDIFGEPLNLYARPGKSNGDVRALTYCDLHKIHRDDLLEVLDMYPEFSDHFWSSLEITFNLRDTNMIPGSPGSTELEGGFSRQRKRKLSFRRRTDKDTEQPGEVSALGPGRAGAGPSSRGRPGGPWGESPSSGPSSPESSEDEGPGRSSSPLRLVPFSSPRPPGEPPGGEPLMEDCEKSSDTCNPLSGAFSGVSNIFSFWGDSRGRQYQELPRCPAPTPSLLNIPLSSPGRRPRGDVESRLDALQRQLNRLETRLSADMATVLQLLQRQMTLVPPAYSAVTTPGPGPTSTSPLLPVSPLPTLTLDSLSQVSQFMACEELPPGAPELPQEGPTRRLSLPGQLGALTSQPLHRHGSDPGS

| SMILES | hERG current change (%, negative = inhibition) at 10uM [%] |
| --- | --- |
| Cn1c(CCN2CCCC2)nc2cc(NS(=O)(=O)c3ccc(Cl)cc3)ccc21 | -84 |
| O=C1c2ccccc2-c2ccc(C(=O)N3CCCCC3)cc21 | -6.85 |
| CCN1CCCc2cc(CN(CCN3CCOCC3)C(=S)Nc3cccc(Cl)c3)ccc21 | 0.317 |
| C/C(=N\Nc1ccccn1)c1ccc(S(=O)(=O)NCc2ccco2)cc1 | -39.1 |
| CCN(C(=O)COC(=O)c1cc(OC)c(OC)cc1[N+](=O)[O-])C1CCS(=O)(=O)C1 (stereo not drawn) | 5.76 |
| Clc1ccc(-n2nnnc2CN2CCOCC2)cc1 | -3.25 |
| Cc1c(NS(=O)(=O)c2cc(NC(=O)CCN3CCCC(C)C3)ccc2Cl)c(=O)n(-c2ccccc2)n1C (stereo not drawn) | 21.9 |
| Cc1sc2nc(SCC(=O)Nc3ccc(S(N)(=O)=O)cc3)[nH]c(=O)c2c1C | -0.66 |
| Cc1c(CC(=O)NCCCC(=O)O)c(=O)oc2cc3c(cc12)CCC(C)(C)O3 | -64.5 |
| Cc1c(C(=O)Nc2ccc(F)cc2)sc2ncn(CC(=O)N3CCCCC3)c(=O)c12 | 1.43 |
| COC(=O)c1c(NC(=O)CSc2ccccc2N)sc(C)c1C | 5.65 |
| O=CO.c1ccc2c(c1)CSc1sccc1C2=C1CCNCC1 | 0.325 |
| N/C(Cc1ccc([N+](=O)[O-])cc1)=N\OC(=O)c1ccc(Br)cc1 | -41.5 |
| CCC(=O)Nc1ccc(S(=O)(=O)Nc2ncccn2)cc1 | 19.8 |
| CC(C)Sc1nc2c(c(=O)[nH]c(=O)n2C)n1CC(O)COc1ccccc1 (stereo not drawn) | 11.1 |
| CCCc1nc2oc3c(NCC(C)O)ncnc3c2c2c1CCCC2 (stereo not drawn) | -26.9 |
| Cc1ccc(N(CC(=O)NCc2ccco2)S(=O)(=O)c2ccccc2)cc1 | -22 |
| CCOC(=O)c1sc(=S)n(-c2ccc(C)cc2)c1SC | 3.25 |
| O=C(NCCCNCc1ccccc1)/C(=N\O)c1ccccc1 | -11.4 |
| COc1ccc(S(=O)(=O)Nc2ccc3c(c2)N(C(C)=O)CCC3)cc1OC | 11.8 |
| CN(C)C(=O)NC(Nc1cccc([N+](=O)[O-])c1)C(Cl)(Cl)Cl (stereo not drawn) | -27.1 |

| SMILES | hERG current change (%, negative = inhibition) at 10uM [%] |
| --- | --- |
| COCCNc1nc2c(c(=O)n(Cc3cccc(Cl)c3)c(=O)n2C)n1C | 3.81 |
| COc1ccccc1C1OC2=C(Nc3ccc([N+](=O)[O-])cc3N2)C1=O (stereo not drawn) | -9.97 |
| O=C(Oc1ccc(C(=S)N2CCOCC2)cc1)c1cc([N+](=O)[O-])cc([N+](=O)[O-])c1 | 8.79 |
| COC(=O)C1=C(c2ccc(C(C)=O)cc2)C[C@@H]2CC[C@H]1N2C(=O)NC1CCCCC1 | -27.1 |
| CC1=C(C(=O)Nc2ccc(C)cc2C)C(c2ccc(C)o2)NC(=S)N1 (stereo not drawn) | 5.96 |
| COc1ccc(C2=NS(=O)(=O)N(C)C(C(=O)NCc3ccc4c(c3)OCO4)=C2)cc1 | -63.3 |
| CCc1noc(C)c1C(=O)Nc1ccc(C)c(S(=O)(=O)N2CCCCCC2)c1 | -45.6 |
| O=C(Nc1ccc(C(=O)N2CCCCC2)cc1)c1ccccc1Br | 8.24 |
| CCOC(=O)c1nn(-c2ccccc2)c(C)c1C(C)=O | 7.24 |
| COC(=O)c1nc(-c2ccc(C)cc2)oc1N(C)C | 10.5 |
| CCCCc1nnc(NC(=O)Cc2ccc(S(=O)(=O)N3CCOCC3)s2)s1 | 3.58 |
| CC(=O)c1sc(NC(=O)CCS(=O)(=O)c2ccccc2)nc1C | 8.51 |
| Nc1ccc(C(=O)Nc2cccc(NC(=O)c3ccc(N)cc3)c2)cc1 | 17.7 |
| CNC(=O)c1nnn(Cc2ccccc2)c1NC(C)=O | 0.326 |
| O=C1CCCC(=NCc2ccco2)C1 | 1.15 |
| CC(Oc1ccccc1)C(=O)N1CCC2(CC1)Oc1ccc(F)cc1C(=O)C21CC(c2ccc(Cl)cc2)=NO1 (stereo not drawn) | 14 |
| CCc1cc(C(=O)OC)c(NC(=O)c2cc(Br)cs2)s1 | -2.11 |
| CCOC(=O)c1ccc(NC(=O)NCc2ccccc2)cc1 | -9.51 |
| CO/N=C/C(=N\Nc1cc(OC)cc(OC)c1)C(=O)c1ccccc1 | 22 |
| COC(=O)C1=C(c2ccccc2OCc2ccccc2)C[C@@H]2CC[C@H]1N2C(=O)NCc1ccc(C(C)(C)C)cc1 | 8.59 |
| CN1CCc2c(sc(NC(=O)C3CCCCC3)c2C(N)=O)C1.Cl | 2.22 |
